# From ChEMBL document CHEMBL4888484, “Replenishing the malaria drug discovery pipeline: Screening and hit evaluation of the MMV Hit Generation Library 1 (HGL1) against asexual blood stage Plasmodium falciparum ,using a nano luciferase reporter read-out” (2022)
# In all, about 150,000 compounds went through this assay and about 540 (0.36%) showed an effect of 50% or more. Some of the results follow.
# Tested on: Plasmodium falciparum
# Experiment: Primary screen in NF54 nanoGlo assay, in single point, at 2uM, 72h; a lower Z score goes with more inhibition
# Assay type: functional, Erythrocyte
# Settings: timepoint 72 hour
SMILES,% Inhibition,Z score
O=C1C2CCCCC2C(=O)N1CC(O)COCc1ccc2c(c1)OCO2 (stereo unspecified),-5%,0.7
CCOC(=O)c1nnsc1NC(=O)OC,-11%,1.71
O=C(Cc1ccc(F)cc1)NC1(c2cccs2)CCCC1,9%,-1.25
Cn1cc(CN2CCN3C(=O)N(C4CCCCC4)C[C@H]3C2)cn1,-13%,2.54
CN(C)S(=O)(=O)Nc1cc(F)cc(F)c1,-7%,1.26
O=C(NCCN1CCCCC1)[C@H]1CCCN(c2ccnc(-c3ccc(F)cc3)n2)C1,12%,-2.23
Cc1cnc(NC(=O)CN2C(=O)[C@@H]3CCCN3C(=O)c3ccccc32)s1,4%,-0.44
Cc1nc(-c2cccc(NC(=O)C3CN(c4nc5c(F)cccc5s4)C3)c2)cs1,-18%,2.35
O=C(N[C@@H](CC(F)(F)F)C1CC1)c1ccn2nnnc2c1,2%,-0.33
Cc1oc(C(C)C)nc1C(=O)N1CC(C(F)(F)F)C1,-7%,1.19
Cc1nn(CCO)c(NCc2ccc(Br)o2)c1C,-17%,2.23
CN(c1cccc(C(=O)NC[C@H]2CCCO2)c1)S(C)(=O)=O,-12%,1.66
Cc1nnc(O)c(CNC(=O)COC2CCCC(C)C2)c1C (stereo unspecified),34%,-4.54
CCC(NC(=O)N1CCC[C@H]1CO)c1ccccc1Br (stereo partly specified),-6%,1.13
COc1ccc(CNC(=O)c2ccc(-c3cccnc3)cc2)c(OC)c1,-7%,0.91
Cc1ccc(-c2coc(-c3cccc(NC(=O)c4ccc(C(C)(C)C)cc4)c3)n2)cc1,2%,-0.28
O=C(Nc1ccc2c(c1)OCCCO2)c1ccc(S(=O)(=O)N2CCCCCC2)cc1,-18%,3.46
COc1ccccc1C1=NS(=O)(=O)N(C)C(C(=O)N2CCCCC2)=C1,-1%,0.13
CN(Cc1ccc(F)cc1)C(=O)CN(C)C1CC[S+]([O-])CC1 (stereo unspecified),-12%,1.2
Cc1cccc2[nH]c([C@@H]3CCCN3C(=O)Cn3nnnc3N)nc12,-2%,0.32
COc1nc(NC[C@@H](C(C)C)N(C)C)ncc1F,-8%,1.57
CCCCCc1nnc(NC(=O)Cn2ncc(=O)c3ccccc32)s1,11%,-2.16

SMILES,% Inhibition,Z score
Cc1nc(NC(=O)Cn2nnc3ccccc32)ccc1Br,4%,-0.81
Cc1cnccc1CNC(=O)c1ccnn1C,-9%,0.93
CCOc1ccc([C@H]2CC(=O)Nc3snc(C)c32)cn1,-8%,1.26
Cc1cc(C(=O)N2CCCCC2)c2c(=O)n(CC(=O)NC(C)(C)C)c(=O)n(-c3ccccc3)c2n1,-7%,1.26
N[C@H]1CCN(C2CCN(c3ccc(Cl)cc3)CC2)C1,5%,-0.51
COCCO[C@H]1CCN(C(=O)c2nccc3ccccc23)C1,-10%,1.13
Cc1nn(C)cc1-c1nnc(-c2noc3c2C[C@@H](C)CC3)o1,3%,-0.41
O=C(c1ccc(O)nc1)N1CCN(S(=O)(=O)c2ccc3ccccc3c2)CC1,-9%,1.19
COC(=O)n1c(=S)oc2cc(Cl)ccc21,1%,-0.15
COc1ccccc1C(=O)Nc1sccc1-c1nc(C2CC2)no1,-2%,0.22
Cc1cnc(-n2ncc(C(=O)N3CCC(CO)CC3)c2C2CC2)nc1-c1cccs1,-20%,2.27
COc1ccccc1COc1cccc(NC(=O)N[C@@H]2COC(C)(C)C2)c1C,-1%,0.08
O=C(CC1CC2CCC1C2)N1CCC(C(=O)N2CCCCCC2)CC1 (stereo unspecified),-6%,1.15
CN(Cc1cscn1)C(=O)Nc1cc(C(F)(F)F)c[nH]c1=O,2%,-0.29
CN1C[C@@H](COc2cccnc2)N(C(=O)c2ccccc2)[C@@H](Cc2ccccc2)C1=O,2%,-0.24
Cn1nc2n(c1=O)CCN(C(=O)NC1CCCCC1)CC2,-17%,2.2
COc1cccc(-c2cc(C(F)(F)F)n3nc(C(=O)Nc4cnn(CC(=O)NCc5ccco5)c4)cc3n2)c1,16%,-1.82
Cc1nc(C)c(CCNC(=O)N2CCC[C@@H]2Cn2ccnc2)s1,-1%,0.21
COCC(=O)NC1CCN(Cc2cnn(-c3ccccc3)n2)CC1,-7%,0.98
O=C(Nc1ccc(Cl)cn1)NC1CCCCC1,-15%,1.25
COC(=O)c1ncccc1OCc1ncc(Cl)cc1Cl,-11%,1.21
